Publication PMC4336329 (PLoS ONE, 2015)
In all, about 310,000 compounds went through this assay and about 2,200 (0.71%) showed an effect of 50% or more. The effect is printed as a negative number. Some of the results follow.

molecular target: human ether-à-go-go-related gene (hERG) potassium channel (human, UniProt Q12809); assay: primary screen, population patch clamp on CHO cells stably expressing hERG
Sequence (Q12809 whole entry, looked up): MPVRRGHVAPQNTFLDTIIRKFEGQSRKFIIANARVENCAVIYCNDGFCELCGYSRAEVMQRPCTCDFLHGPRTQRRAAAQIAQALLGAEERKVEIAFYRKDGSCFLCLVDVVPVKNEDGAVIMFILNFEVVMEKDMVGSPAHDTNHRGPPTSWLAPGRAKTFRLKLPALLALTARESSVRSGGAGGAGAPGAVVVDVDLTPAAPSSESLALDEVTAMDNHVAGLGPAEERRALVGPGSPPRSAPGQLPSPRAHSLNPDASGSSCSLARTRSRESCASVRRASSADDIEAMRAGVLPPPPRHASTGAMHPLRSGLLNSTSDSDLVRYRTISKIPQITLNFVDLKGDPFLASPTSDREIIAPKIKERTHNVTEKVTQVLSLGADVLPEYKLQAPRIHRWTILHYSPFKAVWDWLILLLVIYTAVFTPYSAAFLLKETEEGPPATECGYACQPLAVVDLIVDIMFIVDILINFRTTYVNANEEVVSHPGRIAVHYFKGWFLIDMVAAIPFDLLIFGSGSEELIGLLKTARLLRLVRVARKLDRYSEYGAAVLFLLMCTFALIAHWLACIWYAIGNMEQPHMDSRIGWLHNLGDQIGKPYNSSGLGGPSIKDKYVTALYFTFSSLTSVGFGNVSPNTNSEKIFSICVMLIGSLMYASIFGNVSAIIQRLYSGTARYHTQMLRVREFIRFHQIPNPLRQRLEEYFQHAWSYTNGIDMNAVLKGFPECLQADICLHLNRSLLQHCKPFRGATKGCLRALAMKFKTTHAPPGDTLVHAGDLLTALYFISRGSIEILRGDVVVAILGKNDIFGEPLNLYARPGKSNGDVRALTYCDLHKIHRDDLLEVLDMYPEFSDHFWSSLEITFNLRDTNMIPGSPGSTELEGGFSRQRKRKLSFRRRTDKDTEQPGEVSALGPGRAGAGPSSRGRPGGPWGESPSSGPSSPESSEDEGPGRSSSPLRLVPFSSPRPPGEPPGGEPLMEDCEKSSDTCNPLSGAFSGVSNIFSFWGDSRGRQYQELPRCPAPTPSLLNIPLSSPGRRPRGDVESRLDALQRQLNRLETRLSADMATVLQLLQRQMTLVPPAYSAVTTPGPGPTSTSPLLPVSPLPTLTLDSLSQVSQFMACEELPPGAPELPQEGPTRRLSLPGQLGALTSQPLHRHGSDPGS

First: CNS(=O)(=O)c1cc(NC(C)=O)c(C)cc1C
Second: Cc1cc2oc(C(=O)NCc3ccccc3)cc(=O)c2cc1C
The “hERG current change (%, negative = inhibition) at 1uM” value of the first is lower: 9.56% for the first, 14% for the second.

First: C=CCn1c(O)c(/C(C)=N/N2CCCCC2)c(=O)[nH]c1=O
Second: O=C(CN1C(=O)c2cccc3cccc(c23)C1=O)N1CCCCCC1
The “hERG current change (%, negative = inhibition) at 1uM” value of the first is lower: 9.13% for the first, 16.7% for the second.

First: CN(CC(=O)Nc1cccc(F)c1)C(=O)c1cccc(-n2cccc2)c1
Second: O=C(CSc1nnnn1Cc1ccccc1)Nc1cccc(F)c1
The “hERG current change (%, negative = inhibition) at 1uM” value of the first is lower: -2.42% for the first, 5.7% for the second.

Going from `Cc1cc(C(=O)COC(=O)c2ccc(Cl)c(S(N)(=O)=O)c2)c(C)n1CC1CCCO1` (stereo not drawn) to `O=C(O)c1ccc(NC(=O)c2ccc3c(c2)C(=O)N(CC2CCCO2)C3=O)cc1` (stereo not drawn), the “hERG current change (%, negative = inhibition) at 1uM” value rises from 8.68% to 13.3%.

Going from `COc1ccc(/C=C/C(=O)c2ccccn2)cc1` to `C[C@H](NC(=O)c1ccccc1)C(=O)Nc1nc(-c2ccccn2)cs1`, the “hERG current change (%, negative = inhibition) at 1uM” value falls from 18% to 2.61%.

Compared with `COc1ccc(CN2CCN(S(=O)(=O)c3ccc(F)cc3)CC2)c(OC)c1OC.O=C(O)C(=O)O`, `Cc1cccc(S(=O)(=O)N2CCN(Cc3ccc4c(c3)OCO4)CC2)c1` is higher in “hERG current change (%, negative = inhibition) at 1uM” value: -4.26% for the first, 6.56% for the second.

Compared with `O=C(Nc1ccc(Br)cc1)c1cccc(S(=O)(=O)Nc2cnc3ccccc3c2)c1`, `O=C(COc1cccc(NC(=O)c2ccccc2)c1)c1ccc(F)cc1` is lower in “hERG current change (%, negative = inhibition) at 1uM” value: 17% for the first, -21.4% for the second.

First: N/C(=N\OC(=O)c1ccc(Cl)cc1)c1[nH]ncc1Br
Second: CCOC(=O)CSc1nnc(Cc2cc(=O)[nH]c(=O)[nH]2)n1-c1ccc(Cl)cc1
The “hERG current change (%, negative = inhibition) at 1uM” value of the first is lower: 8.21% for the first, 9.54% for the second.

First: C#CCOCCOCCOCCNc1nc(N2CCOCC2)nc(N2CCN(C(=O)CCCCCCCCCCNC(=O)[C@H](CO)n3cc(CCCCCN)nn3)CC2)n1
Second: COc1ccc(NC(=O)COc2nc3ccccc3nc2N2CCOCC2)c(OC)c1
The “hERG current change (%, negative = inhibition) at 1uM” value of the first is lower: 10.7% for the first, 14.2% for the second.

Going from `Cc1ccc(C(=O)Nc2nnc(NC(=S)Nc3ccccc3)s2)cc1` to `Cc1ccc(C(=O)NC(=S)NCC(=O)c2ccccc2)cc1`, the “hERG current change (%, negative = inhibition) at 1uM” value falls from 7.27% to 3.61%.

First: N/C(=N\OC(=O)CCCC(=O)O)c1ncc(C(F)(F)F)cc1Cl
Second: O=C(NCCc1ccco1)c1cc(COc2cccc(C(F)(F)F)c2)on1
The “hERG current change (%, negative = inhibition) at 1uM” value of the first is lower: 8.03% for the first, 10.5% for the second.

Going from `CC(C)OCCCNC(=O)Cn1nc(-c2ccccc2)ccc1=O` to `CCNC(=O)C1CC(=O)N(CCCc2ccccc2)C(=Nc2ccccc2)S1` (stereo not drawn), the “hERG current change (%, negative = inhibition) at 1uM” value rises from -3.14% to 14.2%.

First: FC(F)(F)c1cc(CCN2CCNC[C@H]2Cc2cccc3ccccc23)cc(C(F)(F)F)c1
Second: O=C(Cc1c[nH]c2ccccc12)N/N=C/c1cccc(F)c1
The “hERG current change (%, negative = inhibition) at 1uM” value of the first is lower: 4.73% for the first, 12.1% for the second.

Compared with `COc1ccc(C(=O)NC(=S)Nc2cccc(Cl)c2N2CCOCC2)cc1[N+](=O)[O-]`, `CCCc1cc(N2CCCC(C(=O)Nc3c(OC)cccc3OC)C2)n2ncnc2n1` (stereo not drawn) is lower in “hERG current change (%, negative = inhibition) at 1uM” value: 13.1% for the first, 1.56% for the second.

Going from `C/C=C1\COC(C(=O)NCc2ccccc2)(C(F)(F)F)C=C1C=C1CCCCC1` (stereo not drawn) to `O=C(Nc1ccccc1C(=O)NCc1ccccc1)c1ccco1`, the “hERG current change (%, negative = inhibition) at 1uM” value falls from 21.7% to 10.1%.

Going from `CCN(CC)CCOC(=O)c1ccc(NC(=S)NC(=O)/C=C/c2ccco2)cc1` to `COc1ccccc1-c1nnc(SC(C)C(=O)Nc2ccc(C(N)=O)cc2)o1` (stereo not drawn), the “hERG current change (%, negative = inhibition) at 1uM” value rises from 11.9% to 13.3%.

Compared with `CC(C)CC(N=C1NC(C)(C)Cc2ccccc21)C(=O)O` (stereo not drawn), `CC(C)OC(=O)CSc1nnc2c3ccccc3n(C)c2n1` is higher in “hERG current change (%, negative = inhibition) at 1uM” value: 3.02% for the first, 5.55% for the second.

Going from `Cc1ccccc1N(C(=O)c1cccs1)c1nc2ccccc2s1` to `c1ccc(Cn2c(SCc3nc4ccccc4s3)nnc2-c2ccco2)cc1`, the “hERG current change (%, negative = inhibition) at 1uM” value falls from 8.42% to 6.85%.

First: O=C(COC(=O)Cc1ccc(F)cc1)NC1CCCC1
Second: CN1C(=O)c2ccc(C(=O)NC3CCCCC3)cc2C1=O
The “hERG current change (%, negative = inhibition) at 1uM” value of the first is lower: 7.98% for the first, 8% for the second.

Compared with `Cc1cccc(N(CC(O)CON=C2c3ccccc3-c3ccccc32)S(C)(=O)=O)c1` (stereo not drawn), `O=C1c2ccccc2C(=O)N1CN(C(=O)COc1ccccc1)c1ccccc1` is lower in “hERG current change (%, negative = inhibition) at 1uM” value: 11.6% for the first, 7.23% for the second.

Compared with `O=C(Nc1ccc(OC(F)F)c(Cl)c1)Nc1ccc2c(c1)OCO2`, `COc1ccc(C)cc1S(=O)(=O)Nc1ccc2c(c1)OCCO2` is lower in “hERG current change (%, negative = inhibition) at 1uM” value: 23.7% for the first, 15.9% for the second.

Going from `CCN(CC(=O)Nc1c(F)cccc1F)C(=O)C1Cc2ccccc2CN1S(=O)(=O)CC` (stereo not drawn) to `O=C(COC(=O)[C@@H]1CCCN1S(=O)(=O)c1ccc(Cl)cc1)NCC(F)(F)F`, the “hERG current change (%, negative = inhibition) at 1uM” value rises from 1.6% to 13.8%.

Going from `CCOC(=O)c1cc2occc2n1CC(=O)NCCOC` to `O=C(Cn1c(=O)oc2ccccc21)NC(=O)NCc1ccco1`, the “hERG current change (%, negative = inhibition) at 1uM” value falls from 12.4% to 11.3%.

Going from `O=C(NCc1cccs1)c1cc2c(s1)-c1ccccc1OC2` to `CC1Cc2nc(SCC(=O)Nc3ccc4c(c3)OCO4)n(Cc3ccccc3)c(=O)c2S1` (stereo not drawn), the “hERG current change (%, negative = inhibition) at 1uM” value falls from 5.22% to 2.09%.

Going from `CC(NC(=O)CNC(=O)c1sc2ccccc2c1Cl)c1ccc(S(N)(=O)=O)cc1` (stereo not drawn) to `CCC(NC(=O)CNC(=O)CNC(=O)c1ccc(Cl)cc1Cl)c1ccc(C)cc1` (stereo not drawn), the “hERG current change (%, negative = inhibition) at 1uM” value rises from -31.4% to 20.4%.

Going from `Cc1nc2sccn2c(=O)c1Br` to `COC(=O)/C=c1/sc2nc3ccccc3n2c1=O`, the “hERG current change (%, negative = inhibition) at 1uM” value falls from 17.8% to 6.81%.

Compared with `Cc1ccc(NC(=O)NNC(=O)c2cc3ccccc3cc2O)cc1C`, `Cc1cccc(NC(=O)c2nc[nH]c2C(=O)NCC(=O)OCc2ccccc2)c1` is higher in “hERG current change (%, negative = inhibition) at 1uM” value: 13.5% for the first, 15.9% for the second.

Compared with `Cl.O=C(NCCc1ccccn1)c1cc(-c2cccc3ccccc23)nc2ccccc12`, `Cc1ccc(NC(=O)COc2ccccc2C(=O)NCc2ccccc2)cc1` is lower in “hERG current change (%, negative = inhibition) at 1uM” value: -5.02% for the first, -15.5% for the second.

First: C/C(=C\c1cc(C(=O)O)c(C)o1)CO
Second: Cc1ccc(C(=O)NCc2occc2C(=O)O)o1
The “hERG current change (%, negative = inhibition) at 1uM” value of the first is lower: 5.92% for the first, 11% for the second.

Going from `CC(C)n1c(C(O)c2ccc3c(c2)OCO3)nc2ccccc21` (stereo not drawn) to `Cc1cc(C)nc(SCC(=O)Nc2ccnc3ccccc23)n1`, the “hERG current change (%, negative = inhibition) at 1uM” value rises from 4.48% to 6.55%.

Going from `CCN(CC)C(=O)C1CCN(S(=O)(=O)c2ccc(-n3cnnn3)cc2)CC1` to `O=C(Nc1nc(-c2ccncc2)cs1)c1ccc(S(=O)(=O)N2CCOCC2)cc1`, the “hERG current change (%, negative = inhibition) at 1uM” value rises from 3.52% to 13%.

Compared with `CC(C)(C)NC(=O)CSc1nc2ccc(NC(=O)CSc3nnnn3Cc3ccccc3)cc2s1`, `COc1ccc(NC(=O)CCCSc2nc(-c3ccco3)cc(C(F)(F)F)n2)cc1OC` is higher in “hERG current change (%, negative = inhibition) at 1uM” value: 4.1% for the first, 16.6% for the second.

Going from `COc1cccc(COC(=O)c2ccc3c(c2)NC(=O)C(C)S3)c1OC` (stereo not drawn) to `COC(=O)c1ccc(-n2c(C)cc(C(=O)COC(=O)CC3Sc4ccccc4NC3=O)c2C)cc1` (stereo not drawn), the “hERG current change (%, negative = inhibition) at 1uM” value falls from 13.8% to 9.47%.

Compared with `Cc1ccc(C(=O)N2CCCC2)c(F)c1F`, `Cc1ccc(C2(c3noc(CN(C)CCCN4CCOCC4)n3)CCCC2)cc1` is higher in “hERG current change (%, negative = inhibition) at 1uM” value: -9.73% for the first, 7.43% for the second.

Going from `CCOc1ccc(C2C(C(=O)c3ccc(C)o3)=C(O)C(=O)N2c2nc(C)c(C(=O)OC)s2)cc1` (stereo not drawn) to `CCN1C(=O)C2(C(C(=O)c3cc4ccccc4o3)=C(O)C(=O)N2CCCN2CCOCC2)c2ccccc21` (stereo not drawn), the “hERG current change (%, negative = inhibition) at 1uM” value rises from 9.88% to 10.6%.

Compared with `Oc1ccccc1N1CCN(c2ncnc3scc(-c4ccc(F)cc4)c23)CC1`, `CN(CCC#N)c1ncnc2scc(-c3ccccc3)c12` is lower in “hERG current change (%, negative = inhibition) at 1uM” value: 14.3% for the first, -0.143% for the second.

Going from `O=C(O)C1Sc2[nH]c(=O)sc2C2c3cc(Cl)ccc3OC(=O)C12` (stereo not drawn) to `COc1cc(C2C(C#N)=C(N)Oc3cc(C)oc(=O)c32)ccc1OC(=O)N1CCOCC1` (stereo not drawn), the “hERG current change (%, negative = inhibition) at 1uM” value falls from 16.9% to -3.47%.

Going from `Nc1nc(SCC(=O)Nc2cc(C(F)(F)F)ccc2N2CCOCC2)n[nH]1` to `O=S(=O)(c1ccc(Br)cc1)c1nc(-c2ccccc2)oc1NCCN1CCOCC1`, the “hERG current change (%, negative = inhibition) at 1uM” value falls from 7.59% to 7.08%.

Compared with `CCCn1nnc(NC(=O)/C=C/c2cc(Br)ccc2OC)n1`, `CCCc1nn(C)c(C(=O)Nc2cccc(C)c2)c1Cl` is higher in “hERG current change (%, negative = inhibition) at 1uM” value: 6.8% for the first, 13.9% for the second.

First: Cc1cnc(CNC(=O)C2CCC(=O)N(Cc3ccc(Cl)cc3)C2)[nH]1 (stereo not drawn)
Second: CS(=O)(=O)NN1C(=O)c2ccccc2NC1c1ccccc1 (stereo not drawn)
The “hERG current change (%, negative = inhibition) at 1uM” value of the first is higher: 22.3% for the first, 11% for the second.

Compared with `Cc1cccc(N/N=C/c2ccc(C)s2)c1`, `COc1ccc(-c2ccc(N)cn2)cn1` is lower in “hERG current change (%, negative = inhibition) at 1uM” value: 18.7% for the first, 15.9% for the second.

Going from `CC(=O)CC(c1ccccc1)c1c(O)c2ccccc2oc1=O.[Na]` (stereo not drawn) to `O=P(c1ccccc1)(c1ccccc1)C(c1ccco1)N1CCOCC1` (stereo not drawn), the “hERG current change (%, negative = inhibition) at 1uM” value falls from 15.2% to 14.2%.

First: O=C(O)c1ccc(/C=C2\SC(=S)N(NC(=O)c3ccc(Br)cc3)C2=O)cc1
Second: Cc1cc([N+](=O)[O-])nn1Cc1c(F)c(F)c(F)c(F)c1F
The “hERG current change (%, negative = inhibition) at 1uM” value of the first is lower: 0.175% for the first, 2.91% for the second.

With `CCCC(c1nnnn1Cc1cccs1)N1CCN(C2CCCC2)CC1.Cl` (stereo not drawn) the “hERG current change (%, negative = inhibition) at 1uM” value was -8.2%.
